{"source": "PubChem BioAssay (NCATS)", "key": {"[1]": {"assay": "AP1 Signaling Pathway (AID 357); also: top concentration of the series differs between compounds; % is scaled to controls: 0 for no effect and ±100 for the full control effect", "settings": "ME-180 AP-1-bla reporter, EGF-induced, beta-lactamase ratio, 5 h; at 17.2 µM (top of the series) unless noted", "how_it_was_run": "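AP-1-bla ME-180 cells with beta-lactamase reporter under AP-1 response element, stimulated with EC50 EGF; compounds titrated, 5 hours at 37 degrees Celsius. CCF4 read at 460/530 nm ratio; positive and negative modulators judged by AC50.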"}, "[2]": {"assay": "qHTS Assay for Identification of Small Molecule Agonists for Hypoxia Response Element Signaling Pathway (AID 914; active = well fitted activation curve with a large enough effect in the signal ratio, with a control signal flat, not every such curve was filed as active; inconclusive = small, poorly fitted or top-dose-only effect, or effect the other way, or a change in a side signal; the % refers to the signal ratio; also: potency is read from the fitted curve at half-maximal effect; as to activation: top concentration of the series differs between compounds; % of control where 0% means no effect)", "settings": "ME-180 HRE-bla reporter, beta-lactamase ratio, CoCl2, 17 h; activation: stronger effect = higher value", "how_it_was_run": "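ME-180 cells carrying an HRE-driven beta-lactamase reporter were treated with compounds in a titration series plus an EC50 level of CoCl2 for 17 h at 37 degrees Celsius; CCF4 readout as the 460nm/530nm ratio gave AC50 values.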"}, "[3]": {"target": "Cytochrome P450 2C19 (Homo sapiens) (UniProt P33261)", "sequence (P33261 whole entry, looked up)": "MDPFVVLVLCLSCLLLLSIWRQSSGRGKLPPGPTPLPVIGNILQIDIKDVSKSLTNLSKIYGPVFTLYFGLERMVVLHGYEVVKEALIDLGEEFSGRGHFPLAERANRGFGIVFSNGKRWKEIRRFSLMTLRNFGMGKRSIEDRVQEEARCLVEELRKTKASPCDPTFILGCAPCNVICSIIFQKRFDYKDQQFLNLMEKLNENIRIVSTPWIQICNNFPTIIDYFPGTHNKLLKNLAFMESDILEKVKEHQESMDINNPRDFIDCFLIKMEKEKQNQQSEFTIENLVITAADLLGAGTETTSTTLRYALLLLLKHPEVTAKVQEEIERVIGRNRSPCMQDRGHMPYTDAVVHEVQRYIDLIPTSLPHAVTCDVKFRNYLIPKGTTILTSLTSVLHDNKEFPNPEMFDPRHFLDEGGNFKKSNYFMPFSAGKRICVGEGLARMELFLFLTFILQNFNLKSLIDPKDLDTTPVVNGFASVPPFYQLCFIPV", "assay": "qHTS Assay for Inhibitors and Substrates of Cytochrome P450 2C19 (AID 899; active = well fitted curve in the direction sought with a large enough effect; inconclusive = small, poorly fitted or top-dose-only effect, or another doubt; inactive = no such curve, though single readings can be large; an effect the other way counts as inactive or inconclusive; also: nearly all actives have a fitted effect of over 60% in size; also: potency is read from the fitted curve at half-maximal effect)", "how_it_was_run": "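Luminescence readout of luciferin formed from 10uM Luciferin-H EGE (KM level) by 5 nM CYP2C19 in 50mM KPO4. 60 min NADPH-driven reaction at 37C after 10 min compound preincubation; data scaled to 57uM ketoconazole inhibition.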"}, "[4]": {"assay": "qHTS Assay for Identification of Small Molecule Antagonists for NFkB Signaling Pathway (AID 895; active = well fitted inhibition curve with a large enough effect in the signal ratio, with a control signal flat, not every such curve was filed as active; inconclusive = small, poorly fitted or top-dose-only effect, or effect the other way, or a change in a side signal; the % refers to the signal ratio; also: potency is read from the fitted curve at half-maximal effect; as to activity change, negative = inhibition: % is scaled to controls: 0 for no effect and ±100 for the full control effect)", "settings": "NFkB beta-lactamase reporter cells, FRET ratio 460/530, stimulated with 10 pM TNF alpha; activity change, negative = inhibition: at 38.3 µM (top of the series)", "how_it_was_run": "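Beta-lactamase reporter read-out (460 and 530 nm emission ratio, 405 nm excitation, 2 hrs substrate loading RT) after 5 hr stimulation with 10 pM TNF alpha in compound-treated NFkB-bla ME-180 cells in low-serum medium.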"}, "[5]": {"assay": "qHTS Assay for Identification of Small Molecule Agonists for Thrombopoietin (TPO) Signaling Pathway (AID 917; active = well fitted curve in the direction sought with a large enough effect; inconclusive = small, poorly fitted or top-dose-only effect, or another doubt; inactive = no such curve, though single readings can be large; an effect the other way counts as inactive or inconclusive; also: potency is read from the fitted curve at half-maximal effect)", "settings": "TPO signaling pathway reporter cells, agonist qHTS, stimulated with TPO at its EC50; activity, positive = activation: at 38.5 µM (top of the series)", "how_it_was_run": "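Activators of TPO signaling were sought in murine Ba/F3 cells transfected with the human receptor, using a luciferase gene driven by the Glycoprotein IIb promoter; 24-hr compound exposure at 37 C alongside 26 pM TPO, in IL-3-free medium.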"}, "[6]": {"target": "Muscarinic acetylcholine receptor M1 (Rattus norvegicus) (UniProt P08482)", "sequence (P08482 whole entry, looked up)": "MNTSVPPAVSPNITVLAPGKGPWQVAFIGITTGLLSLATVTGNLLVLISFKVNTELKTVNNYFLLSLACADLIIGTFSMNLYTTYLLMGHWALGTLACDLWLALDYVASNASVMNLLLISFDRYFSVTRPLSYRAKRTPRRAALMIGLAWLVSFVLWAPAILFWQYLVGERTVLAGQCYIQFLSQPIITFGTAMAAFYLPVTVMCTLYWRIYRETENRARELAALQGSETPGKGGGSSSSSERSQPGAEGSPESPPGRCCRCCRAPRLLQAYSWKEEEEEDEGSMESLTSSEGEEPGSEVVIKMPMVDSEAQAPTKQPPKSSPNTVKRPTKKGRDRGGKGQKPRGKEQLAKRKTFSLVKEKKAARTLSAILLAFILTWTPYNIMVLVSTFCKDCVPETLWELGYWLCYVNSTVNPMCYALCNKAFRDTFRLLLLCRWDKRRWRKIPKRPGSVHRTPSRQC", "assay": "qHTS Assay for Antagonists of Acetylcholine Muscarinic M1 Receptor: Kinetic Measurement of Intracellular Calcium Response (AID 943; active = well fitted curve in the direction sought with a large enough effect; inconclusive = small, poorly fitted or top-dose-only effect, or another doubt; inactive = no such curve, though single readings can be large; an effect the other way counts as inactive or inconclusive; also: nearly all actives have a fitted effect of over 75% in size; also: potency is read from the fitted curve at half-maximal effect)", "how_it_was_run": "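CHO cells expressing rat M1 receptor, Fluo-4 loaded, preincubated 10 min with compound, then stimulated with EC80 carbachol (100 nM final). Kinetic calcium fluorescence over 4 min; response taken as peak over basal signal.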"}, "[7]": {"target": "Cytochrome P450 3A4 (Homo sapiens) (UniProt P08684)", "sequence (P08684 whole entry, looked up)": "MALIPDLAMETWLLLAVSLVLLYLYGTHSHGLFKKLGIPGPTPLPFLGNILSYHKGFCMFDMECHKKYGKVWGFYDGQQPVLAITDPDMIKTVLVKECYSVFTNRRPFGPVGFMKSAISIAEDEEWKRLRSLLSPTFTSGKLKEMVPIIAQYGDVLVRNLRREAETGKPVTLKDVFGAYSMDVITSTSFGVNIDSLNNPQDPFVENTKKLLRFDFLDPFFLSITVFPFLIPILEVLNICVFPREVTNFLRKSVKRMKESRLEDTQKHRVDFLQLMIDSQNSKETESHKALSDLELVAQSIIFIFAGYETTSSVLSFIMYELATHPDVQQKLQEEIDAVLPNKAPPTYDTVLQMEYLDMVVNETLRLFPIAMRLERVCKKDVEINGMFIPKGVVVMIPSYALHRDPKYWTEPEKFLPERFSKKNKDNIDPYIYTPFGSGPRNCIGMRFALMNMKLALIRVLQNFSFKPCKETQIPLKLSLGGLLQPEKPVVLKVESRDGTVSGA", "assay": "qHTS Assay for Inhibitors and Substrates of Cytochrome P450 3A4 (AID 884; active = well fitted curve in the direction sought with a large enough effect; inconclusive = small, poorly fitted or top-dose-only effect, or another doubt; inactive = no such curve, though single readings can be large; an effect the other way counts as inactive or inconclusive; also: potency is read from the fitted curve at half-maximal effect; nearly all actives have a fitted effect of over 50% in size)", "how_it_was_run": "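20 nM human CYP3A4 with 25 uM Luciferin-PPXE (at KM) in 200 mM KPO4, preincubated 10 min with compound; NADPH regeneration started a 60 min RT reaction. Luciferin detected by luminescence, normalized to 57 uM ketoconazole as full inhibition.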"}, "[8]": {"target": "Cytochrome P450 2D6 (Homo sapiens) (UniProt P10635)", "sequence (P10635 whole entry, looked up)": "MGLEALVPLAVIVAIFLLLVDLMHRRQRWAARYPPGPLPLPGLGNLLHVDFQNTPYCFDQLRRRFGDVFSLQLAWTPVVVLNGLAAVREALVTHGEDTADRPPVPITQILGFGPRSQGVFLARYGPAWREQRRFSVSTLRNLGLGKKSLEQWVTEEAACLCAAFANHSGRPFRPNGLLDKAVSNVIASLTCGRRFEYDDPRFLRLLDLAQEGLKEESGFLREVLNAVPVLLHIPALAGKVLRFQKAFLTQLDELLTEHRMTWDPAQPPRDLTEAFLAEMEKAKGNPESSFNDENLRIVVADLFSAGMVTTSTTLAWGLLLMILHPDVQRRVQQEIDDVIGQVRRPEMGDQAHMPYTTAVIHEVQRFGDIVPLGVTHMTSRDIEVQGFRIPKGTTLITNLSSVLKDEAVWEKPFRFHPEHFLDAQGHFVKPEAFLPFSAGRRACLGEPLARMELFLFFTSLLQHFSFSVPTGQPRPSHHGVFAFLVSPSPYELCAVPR", "assay": "qHTS Assay for Inhibitors and Substrates of Cytochrome P450 2D6 (AID 891; active = well fitted curve in the direction sought with a large enough effect; inconclusive = small, poorly fitted or top-dose-only effect, or another doubt; inactive = no such curve, though single readings can be large; an effect the other way counts as inactive or inconclusive; also: potency is read from the fitted curve at half-maximal effect; nearly all actives have a fitted effect of over 60% in size)", "settings": "recombinant CYP2D6, luciferin-ME EGE luminescence; activity change, negative = inhibition: at 57.1 µM (top of the series)", "how_it_was_run": "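Human CYP2D6 (5 nM) with 30 uM Luciferin-ME EGE (at Km) in 100 mM KPO4, compound preincubated 10 min, then NADPH regeneration system for 60 min at room temperature. Luciferin read by luminescence; normalized to 1.43 uM quinidine.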"}, "[9]": {"target": "3',5'-cyclic-AMP phosphodiesterase 4B (Homo sapiens) (UniProt Q07343)", "sequence (Q07343 whole entry, looked up)": "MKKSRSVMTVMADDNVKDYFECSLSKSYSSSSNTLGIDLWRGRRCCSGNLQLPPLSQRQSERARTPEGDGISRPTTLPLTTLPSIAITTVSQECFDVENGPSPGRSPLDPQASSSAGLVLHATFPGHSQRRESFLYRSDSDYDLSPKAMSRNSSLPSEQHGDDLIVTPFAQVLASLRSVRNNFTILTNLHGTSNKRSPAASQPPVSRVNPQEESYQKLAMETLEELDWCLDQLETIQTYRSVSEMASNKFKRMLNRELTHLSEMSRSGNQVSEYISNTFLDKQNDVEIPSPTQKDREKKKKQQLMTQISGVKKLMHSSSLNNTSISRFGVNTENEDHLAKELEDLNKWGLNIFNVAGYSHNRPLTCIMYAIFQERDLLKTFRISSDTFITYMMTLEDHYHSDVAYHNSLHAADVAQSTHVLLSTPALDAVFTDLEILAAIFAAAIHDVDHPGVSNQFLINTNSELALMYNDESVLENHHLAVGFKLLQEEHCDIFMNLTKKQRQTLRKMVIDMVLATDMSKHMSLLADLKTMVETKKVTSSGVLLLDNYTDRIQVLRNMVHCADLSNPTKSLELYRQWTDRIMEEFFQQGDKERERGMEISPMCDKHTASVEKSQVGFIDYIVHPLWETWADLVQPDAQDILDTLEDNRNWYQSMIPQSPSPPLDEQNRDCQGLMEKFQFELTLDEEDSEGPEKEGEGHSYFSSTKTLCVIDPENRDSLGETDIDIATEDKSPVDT", "assay": "qHTS Assay for Inhibitors of PDE-IV (AID 607; active = well fitted activation curve with a large enough effect in the main read-out, with a control signal flat, not every such curve was filed as active; inconclusive = small, poorly fitted or top-dose-only effect, or effect the other way, or a change in a side signal; also: % of control where 0% means no effect)", "settings": "HEK293 ACTOne CNG channel cells, membrane potential fluorescence; activation (PDE inhibition): at 22.9 µM (top of the series)", "how_it_was_run": "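Cell-based read-out of cAMP via a modified cyclic nucleotide-gated channel and membrane potential dye (535/590 nm) in HEK293 cells expressing PDE4 endogenously. Compounds tested up to 22.9 uM final; 100 uM RO 20-1724 reference.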"}, "[10]": {"assay": "qHTS Assay for Identification of Small Molecule Agonists for NFkB Signaling Pathway (AID 928; calls by dose curve)", "settings": "NFkB beta-lactamase reporter cells, blue/green ratio", "how_it_was_run": "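ME-180 NFkB-bla cells carry a beta-lactamase reporter under an NFkB response element. Compound plus 10 pM TNF alpha (final) was applied for 5 hrs at 37 C. After 2 hrs with LiveBLAzer substrate, 460/530 nm emission was read at 405 nm excitation.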"}, "[11]": {"target": "Cytochrome P450 2C9 (Homo sapiens) (UniProt P11712)", "sequence (P11712 whole entry, looked up)": "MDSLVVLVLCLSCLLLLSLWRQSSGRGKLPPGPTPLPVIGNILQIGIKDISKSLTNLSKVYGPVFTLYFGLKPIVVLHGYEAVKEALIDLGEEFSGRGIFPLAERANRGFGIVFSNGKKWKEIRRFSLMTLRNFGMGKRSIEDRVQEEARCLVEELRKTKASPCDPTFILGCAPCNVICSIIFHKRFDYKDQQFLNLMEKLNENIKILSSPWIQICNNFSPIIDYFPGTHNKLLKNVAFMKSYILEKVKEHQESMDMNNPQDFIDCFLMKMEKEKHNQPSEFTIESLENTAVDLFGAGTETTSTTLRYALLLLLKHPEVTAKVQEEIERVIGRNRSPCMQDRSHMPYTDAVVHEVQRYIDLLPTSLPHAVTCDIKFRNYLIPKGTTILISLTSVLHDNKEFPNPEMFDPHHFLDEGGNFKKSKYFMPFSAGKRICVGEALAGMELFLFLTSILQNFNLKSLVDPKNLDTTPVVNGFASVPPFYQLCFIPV", "assay": "qHTS Assay for Inhibitors and Substrates of Cytochrome P450 2C9 (AID 883; active = well fitted curve in the direction sought with a large enough effect; inconclusive = small, poorly fitted or top-dose-only effect, or another doubt; inactive = no such curve, though single readings can be large; an effect the other way counts as inactive or inconclusive; also: potency is read from the fitted curve at half-maximal effect; nearly all actives have a fitted effect of over 60% in size)", "settings": "recombinant CYP2C9, luciferin-H luminescence, 60 min; activity change, negative = inhibition: at 57.1 µM (top of the series)", "how_it_was_run": "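Luminescent read-out of deoxyluciferin hydroxylation, normalized to 57uM sulphaphenazole (AC100). Reaction: 10nM enzyme, 100uM Luciferin-H (equal to KM), 25mM KPO4, 10 min compound preincubation, then 60 min with NADPH regeneration, both at 37C.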"}, "[12]": {"assay": "qHTS screen for small molecules that inhibit ELG1-dependent DNA repair: Hit Confirmation with MMS Viability (AID 624251; active = well fitted curve in the direction sought with a large enough effect; inconclusive = small, poorly fitted or top-dose-only effect, or another doubt; inactive = no such curve, though single readings can be large; an effect the other way counts as inactive or inconclusive; also: % is scaled to controls: 0 for no effect and ±100 for the full control effect; nearly all actives have a fitted effect of over 60% in size)", "how_it_was_run": "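Luminescent ATP read-out (CellTiter-Glo) gives viability of ELG1-luc HEK293T cells exposed to compounds together with 10 µM methyl methanesulfonate for 16 h.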"}}, "note": "The shares of active, inactive and inconclusive entries below differ from those in the screen. For part of these data: Where the call is inconclusive, the potency comes from a doubtful curve fit. Calls of active or inactive are those of the source. Unless noted, calls follow the shape of the dose curve; as a rule, active = well fitted curve in either direction with a large enough effect (not every such curve was filed as active); inconclusive = small, poorly fitted or top-dose-only effect, or another doubt; inactive = flat fitted curve, though single readings scatter. Tags tell the direction and shape of the fitted curve or compound fluorescence and quenching.", "data": [{"smiles": "CCOC(=O)CSc1nc(N)c2c3c(sc2n1)CCCC3", "values": [{"measurement": "activity change, negative = inhibition", "setting": "[1]", "value": "inconclusive: -30.9% [inhibitor]"}, {"measurement": "Potency", "setting": "[2]", "value": "inconclusive: 12.6 µM [inhibitor, single point]"}]}, {"smiles": "COc1ccc(CCCC(=O)O)c(C)c1", "values": [{"measurement": "activity change, negative = inhibition", "setting": "[1]", "value": "inactive: 1.4% [at 7.69 µM]"}, {"measurement": "Potency", "setting": "[3]", "value": "inactive"}, {"measurement": "activation", "setting": "[2]", "value": "inactive: -8.35%"}]}, {"smiles": "O=C(/C=C\\c1ccc(O)cc1)c1ccc(O)cc1O", "values": [{"measurement": "activity change, negative = inhibition", "setting": "[1]", "value": "inconclusive: -37.2% [inhibitor] [at 38 µM]"}, {"measurement": "Potency", "setting": "[4]", "value": "inconclusive: 3.16 µM [inhibitor, partial curve, poor fit]"}, {"measurement": "Potency", "setting": "[5]", "value": "inconclusive: 3.16 µM [activator, single point]"}, {"measurement": "Potency", "setting": "[6]", "value": "inactive"}]}, {"smiles": "S=C1SCN(C2CCCCCCCCCCC2)CN1C1CCCCCCCCCCC1", "values": [{"measurement": "activity change, negative = inhibition", "setting": "[1]", "value": "inactive: -6.27% [at 7.69 µM]"}, {"measurement": "Potency", "setting": "[7]", "value": "inconclusive: 3.98 µM [inhibitor, partial curve]"}, {"measurement": "Potency", "setting": "[8]", "value": "inconclusive: 3.16 µM [inhibitor, partial curve]"}, {"measurement": "activation", "setting": "[2]", "value": "inactive: 24.8%"}]}, {"smiles": "CC(C)CNc1nc(N)[nH]c(=O)c1NC=O", "values": [{"measurement": "activity change, negative = inhibition", "setting": "[1]", "value": "inactive: 9% [at 7.69 µM]"}, {"measurement": "Potency", "setting": "[3]", "value": "inactive"}]}, {"smiles": "O=c1[nH]c(=S)[nH]c2c1CN(CCCN1CCOCC1)CN2", "values": [{"measurement": "activity change, negative = inhibition", "setting": "[1]", "value": "inactive: 3.35% [at 7.69 µM]"}, {"measurement": "Potency", "setting": "[9]", "value": "inactive"}, {"measurement": "activation", "setting": "[2]", "value": "inconclusive: 14.4%"}]}, {"smiles": "CC(CC(=O)O)(CC(=O)O)c1ccccc1", "values": [{"measurement": "activity change, negative = inhibition", "setting": "[1]", "value": "inconclusive: 31.1% [activator] [at 7.69 µM]"}, {"measurement": "Potency", "setting": "[9]", "value": "inactive"}, {"measurement": "Potency", "setting": "[2]", "value": "inconclusive: 0.158 µM [activator, single point]"}]}, {"smiles": "O=C1C2=C(Nc3cc([N+](=O)[O-])ccc3N2)O[C@@H]1c1c[nH]c2ccc(COc3ccccc3)cc12", "values": [{"measurement": "activity change, negative = inhibition", "setting": "[1]", "value": "inactive: -21.7% [at 7.69 µM]"}, {"measurement": "Potency", "setting": "[7]", "value": "inconclusive: 3.16 µM [inhibitor, partial curve]"}, {"measurement": "Potency", "setting": "[3]", "value": "inconclusive: 3.16 µM [inhibitor, partial curve]"}]}, {"smiles": "CN(C)C(=O)c1ccc(-c2nccc(N(C)Cc3ccco3)n2)cc1", "values": [{"measurement": "activity change, negative = inhibition", "setting": "[1]", "value": "inactive: -6.22% [at 7.69 µM]"}, {"measurement": "Potency", "setting": "[9]", "value": "inactive"}]}, {"smiles": "C[C@H](N)C1CCC(C(=O)Nc2ccncc2)CC1", "note": "(stereo partly specified)", "values": [{"measurement": "activity change, negative = inhibition", "setting": "[1]", "value": "inconclusive: -70.9% [inhibitor] [at 38 µM]"}, {"measurement": "Potency", "setting": "[4]", "value": "active: 7.94 µM"}, {"measurement": "Potency", "setting": "[5]", "value": "inconclusive: 10 µM [activator, single point]"}, {"measurement": "Potency", "setting": "[10]", "value": "inconclusive: 7.94 µM [inhibitor, partial curve]"}]}, {"smiles": "C[C@@]12CC[C@@H]3[C@@H](CC[C@H]4C[C@@H](O)CC[C@]43C)[C@H]1CC[C@@H]2c1cc(C(F)(F)F)n[nH]1", "values": [{"measurement": "activity change, negative = inhibition", "setting": "[1]", "value": "inconclusive: 73.5% [activator] [at 7.69 µM]"}, {"measurement": "Potency", "setting": "[11]", "value": "inconclusive: 7.94 µM [inhibitor, single point]"}, {"measurement": "activation", "setting": "[2]", "value": "inconclusive: 31.9%"}]}, {"smiles": "Cc1nc2sc3c(NCc4ccco4)ncnc3c2c2c1COC(C)(C)C2", "values": [{"measurement": "activity change, negative = inhibition", "setting": "[1]", "value": "inconclusive: -55.2% [inhibitor]"}, {"measurement": "Potency", "setting": "[2]", "value": "inconclusive: 12.6 µM [inhibitor, single point]"}, {"measurement": "Potency", "setting": "[12]", "value": "inactive"}]}, {"smiles": "NCC[C@H]1CCC[C@H](CCN)N1", "values": [{"measurement": "activity change, negative = inhibition", "setting": "[1]", "value": "inactive: 2.44% [at 38 µM]"}, {"measurement": "Potency", "setting": "[4]", "value": "inactive"}, {"measurement": "Potency", "setting": "[6]", "value": "inconclusive: 0.0089 µM [inhibitor, full curve, poor fit]"}]}, {"smiles": "Cc1c(S(=O)(=O)O)ccc(N=Nc2c(O)c(C(=O)O)cc3ccccc23)c1Cl", "values": [{"measurement": "activity change, negative = inhibition", "setting": "[1]", "value": "inconclusive: 31.5% [activator] [at 7.69 µM]"}, {"measurement": "activation", "setting": "[2]", "value": "inactive: -17.8%"}]}, {"smiles": "O=C(O)CCN(CCC(=O)O)c1nnc(SCc2ccccc2)s1", "values": [{"measurement": "activity change, negative = inhibition", "setting": "[1]", "value": "inactive: 8.29%"}, {"measurement": "activation", "setting": "[2]", "value": "inactive: 24.5%"}]}, {"smiles": "C(=Nc1ccc2c(c1)Cc1ccccc1-2)c1ccccn1", "values": [{"measurement": "activity change, negative = inhibition", "setting": "[1]", "value": "inactive: -0.541% [at 7.69 µM]"}, {"measurement": "activation", "setting": "[2]", "value": "inconclusive: -23.6%"}]}, {"smiles": "COc1cccc(-c2nnc3sc(-c4ccccc4)nn23)c1", "values": [{"measurement": "activity change, negative = inhibition", "setting": "[1]", "value": "inconclusive: -36.6% [inhibitor]"}, {"measurement": "Potency", "setting": "[2]", "value": "inconclusive: 10 µM [inhibitor, partial curve]"}]}, {"smiles": "COc1ccc(Oc2ncc3nc(-c4ccc(F)cc4)c(=O)n(C)c3n2)cc1", "values": [{"measurement": "activity change, negative = inhibition", "setting": "[1]", "value": "inconclusive: -33.9% [inhibitor] [at 7.69 µM]"}, {"measurement": "activation", "setting": "[2]", "value": "inactive: 16.5%"}]}, {"smiles": "Cn1c(-n2c(-c3ccco3)nc3ccccc3c2=O)nc2ccccc21", "values": [{"measurement": "activity change, negative = inhibition", "setting": "[1]", "value": "inactive: -5.43%"}, {"measurement": "Potency", "setting": "[2]", "value": "inconclusive: 7.94 µM [inhibitor, partial curve]"}]}]}
